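Step 1: Grow cells in 96-well plates. Step 2: Expose to compound for 48 hours at 5 concentrations. Step 3: Interpolate endpoints linearly; if unreached, use highest concentration. GI50 marks 50% less growth.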 The source made the active and inactive calls. Rule as the data show it: active = GI50 up to about 1.1 µM and inactive = higher.
test system: NCI-H322M; experiment: NCI-60 cell line screen, 48 h

Structure (SMILES)	GI50
O=C(CCc1cccc(O)c1)NCCc1cccc(OCc2ccccc2)c1	inactive: 23.1 µM
O=C(OC1C#CCSCC#C/C=C\1)c1ccc2c(c1)C(=O)c1ccccc1C2=O (stereo not given)	inactive: > 100 µM
COC(=O)C1=C(C)N(NC(N)=O)C2(N)N(NC(N)=O)C(C)=C(C(=O)OC)C12C#N (stereo not given)	inactive: > 100 µM
CSc1nc2c(nc(N)n2C2OCC(O)C(O)C2O)c(=O)n1C (stereo not given)	inactive: > 100 µM
COc1cc2c[n+]3c4c(c2c(OC)c1OC)CCCC4CC3 (stereo not given)	inactive: > 100 µM
NCCCNC(=O)c1csc(NC(=O)c2csc(NC(=O)CCCN)n2)n1	inactive: > 100 µM
N=C(N)NS(=O)(=O)c1ccc(Nc2c3ccccc3nc3c(C(=O)N4CCN(CCO)CC4)cccc23)cc1	inactive: > 100 µM
COc1cc(/C=C2\CCC(C)c3c2nc(N)c(C#N)c3-c2cc(OC)c(OC)c(OC)c2)cc(OC)c1OC (stereo not given)	inactive: > 100 µM
O=C(c1ccccc1)N(C(=O)c1ccccc1)c1nc(SCc2ccccc2)ns1	inactive: 29.4 µM
C/C=C/[C@H]1O[C@@](O)([C@@H](C)[C@H](O)[C@H](C)[C@H]2OC(=O)/C(OC)=C/C(C)=C/[C@@H](C)[C@@H](O)[C@@H](CC)[C@@H](O)[C@H](C)C/C(C)=C/C=C/[C@@H]2OC)C[C@H](OC2CC(O)C(OC(N)=O)C(C)O2)[C@@H]1C (stereo not given in full)	active: 0.94 µM
CN(C)c1ccc(C(C#N)NNC(=O)Cc2ccccc2)cc1 (stereo not given)	inactive: > 100 µM
CCC1CCN=C(Cn2cc(C)c(=O)[nH]c2=O)N1 (stereo not given)	inactive: > 100 µM
CC(C)(C)OC(=O)NCC(CNC(=O)OC(C)(C)C)c1nc(C(N)=O)cs1	inactive: > 100 µM
CSc1nc(-c2ccccc2)nc(C(C#N)C#N)n1	inactive: > 100 µM
CCc1nnc(CC)n1NCCCC(=O)O	inactive: > 100 µM
O=C1C=C(Nc2ccc(Br)cc2)c2ccccc2/C1=N/O	inactive: 1.63 µM
OCC(O)C(O)C(O)c1nn(-c2ccc(Cl)cc2)c2nc3cc(Cl)c(Cl)cc3nc12 (stereo not given)	inactive: > 100 µM
CC1(C)C(=O)c2ccccc2OC1N1CCN(C2Oc3ccccc3C(=O)C2(C)C)CC1 (stereo not given)	inactive: 67 µM
C=CCC1(O)CC(n2cc(C)c(=O)[nH]c2=O)OC1CO[Si](C)(C)C(C)(C)C (stereo not given)	inactive: 74.3 µM
CS(=O)(=O)CCC(N)P(=O)(O)O (stereo not given)	inactive: > 100 µM
N#CCc1nc(-c2cc3c(ccc4ccccc43)oc2=O)cs1	inactive: > 100 µM
CCCCCCCCC/C=C/C=C/C(=O)NCC(=O)NC1C(O)C(O)C(Nc2ncnc3[nH]cnc23)OC1C(O)CO (stereo not given)	active: 0.00123 µM
CCOC(=O)c1cc(C)n(CN(CCO)Cn2nc(C(=O)OCC)cc2C)n1	inactive: > 100 µM

Structure (SMILES)	GI50
O=C(/C=C/c1ccccc1)NC1C=Nc2ccc([N+](=O)[O-])cc2NC1=O (stereo not given)	inactive: > 100 µM
C1=C\CCCCN2C[C@H]3CCCC/C=C\CCCCN4CC[C@@H]([C@H](CCCCCC/1)C4)[C@H](C3)C2	inactive: 1.95 µM
c1ccc2[nH]c(C3CCCCO3)nc2c1 (stereo not given)	inactive: > 100 µM
CC(=O)N(CN1C(=O)CCC1C(=O)O)c1ccccc1Cl (stereo not given)	inactive: > 100 µM
CC(c1ccccc1)n1cncc1C(=O)NN1CCN(C)CC1 (stereo not given)	inactive: > 10 µM
COc1cc2c(cc1OC)-c1c(cc(OC)c(OC)c1OC)C2=O	inactive: > 100 µM
Cn1cnc2c1c(=O)n(CCNCCO)c(=O)n2C	inactive: > 100 µM
On1c(-c2ccccc2)nc2ccccc2c1=S	inactive: 5.27 µM
[N-]=[N+]=NC1C(O)C(CO)OC1n1ccc(N)nc1=O (stereo not given)	inactive: 67.9 µM
Nc1cc(-c2ccc(Cl)cc2)nn1-c1nc2ccccc2nc1-c1ccccc1	inactive: 56.1 µM
C=C1CCCC(C)(C)[C@H]1C/C=C1\CCOC1=O	inactive: 16.9 µM
NC(=O)n1ncc(Cl)c(Cl)c1=O	inactive: > 100 µM
NC(Cc1ccc(S(=O)(=O)O)cc1)C(=O)NC(Cc1ccc(S(=O)(=O)O)cc1)C(=O)O (stereo not given)	inactive: > 100 µM
O=S(=O)(O)c1ccc(/N=N\c2ccc(/N=N\c3ccc(/C=C/c4ccc(/N=[N+](/[O-])c5ccc(/C=C/c6ccc(/N=N/c7ccc(/N=N\c8ccc(S(=O)(=O)O)cc8)cc7)cc6S(=O)(=O)O)c(S(=O)(=O)O)c5)cc4S(=O)(=O)O)c(S(=O)(=O)O)c3)cc2)cc1	inactive: > 100 µM
C[C@@H](CC(O)C(O)C(C)(C)O)C1CCC23CC12CCC1[C@@]2(C)CCC(=O)C(C)(C)C2CC(OC2OC(CO)C(O)C(O)C2O)[C@]13C (stereo not given in full)	inactive: > 10 µM
CCC1=NC(CO)[C@H](c2ccccc2)O1 (stereo not given in full)	inactive: > 100 µM
CC1CCC2(O)C3(C)CC4(O)OC2(C1O)C1(O)C3(O)C(OC(=O)c2ccc[nH]2)C(O)(C(C)C)C41C (stereo not given)	inactive: > 100 µM
C=CC(C)(C)NC(C(=O)N1CCC[C@H]1c1nc(-c2nc(C(=O)OCC=C(C)C)c(C)o2)c(C)o1)C(C)C (stereo not given in full)	inactive: > 81.5 µM
COc1cc2c(c(OC)c1OC)-c1ccc(SC)c(=O)cc1[C@@H](NCc1cccc([N+](=O)[O-])c1)CC2	active: < 0.01 µM
CC(=O)c1cc2c(s1)C(=O)c1ccsc1C2=O	inactive: 1.92 µM
CCOC(=O)C(=O)Nc1ccc([N+](=O)[O-])cc1C#N	inactive: > 100 µM
CCCCCCN(CCCCCC)C(=O)Cc1c2n(c3ccccc13)Cc1ccccc1-2	inactive: > 100 µM

Source: ChEMBL document CHEMBL1201862, “PubChem BioAssay data set” (2004)
